# Assay results as given in the supplement of paper PMC4604168 (melanoma cell lines).
# The other results are listed elsewhere or left out. Most values come without repeats; read them as rough.
# What was measured:
# Assay in all cases: cell count relative to DMSO control; melanoma cells; higher = more viable cells
# Settings in all cases: library dose: low library concentration; 72 h; first compound 0.4 µM
# [1] = test system: COLO792
# [2] = test system: COLO800
# [3] = test system: COLO829
# [4] = test system: G361
# [5] = test system: IPC-298
# [6] = test system: IST-MEL1
# [7] = test system: LB2518-MEL
# [8] = test system: LOXIMVI
# [9] = test system: MEL-HO
# 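Further: cell number obtained by counting DAPI-stained nuclei in high-throughput microscope images with image analysis software, screen run in 1,536-well plates.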
Structure (SMILES),cell count [1] [%],cell count [2] [%],cell count [3] [%],cell count [4] [%],cell count [5] [%],cell count [6] [%],cell count [7] [%],cell count [8] [%],cell count [9] [%]
Cn1sc(=O)n(Cc2ccccc2)c1=O + O=C1NC(=O)/C(=C/c2ccc(-c3ccc(F)cc3O)o2)S1 [AS252424] (partner dose 1 µM),94.3,93.4,102,116,103,101,108,66.8,102
C[C@@H](N)c1ccc(C(=O)Nc2ccnc3[nH]ccc23)cc1 + O=C(Nc1ccccc1)c1cc([N+](=O)[O-])ccc1Cl [GW9662] (partner dose 2 µM),107,103,125,97.9,114,104,132,51.3,94.4
CCCCCCCCCCCCCCCCCCOP(=O)([O-])OC1CC[N+](C)(C)CC1 [Perifosine] + Cn1cc(/C=C2\C(=O)Nc3cccnc32)c2ccccc21 [GW441756] (partner dose 0.4 µM),86.1,93.3,82.3,89,95.7,92,91.3,74.8,99.8
Cn1sc(=O)n(Cc2ccccc2)c1=O + Oc1cc(-c2nc(-c3ccccc3)[nH]c2-c2ccncc2)ccc1Cl [L779450] (partner dose 0.2 µM),106,87.2,115,110,88.3,97,92.5,87.2,79.1
Cn1sc(=O)n(Cc2ccccc2)c1=O + COC(=O)c1sccc1S(=O)(=O)Nc1ccc(Nc2ccccc2)cc1OC [GSK0660] (partner dose 1 µM),109,80.6,92.5,81.9,96.5,111,105,93.3,105
CCCCCCCCCCCCCCCCCCOP(=O)([O-])OC1CC[N+](C)(C)CC1 [Perifosine] + COc1cc(Nc2ncc(F)c(Nc3ccc4c(n3)NC(=O)C(C)(C)O4)n2)cc(OC)c1OC [Tamatinib] (partner dose 0.4 µM),64.5,126,87.5,83.7,73.9,99.2,63.1,87.2,82.9
C[C@@H](N)c1ccc(C(=O)Nc2ccnc3[nH]ccc23)cc1 + Cn1cc(/C=C2\C(=O)Nc3cccnc32)c2ccccc21 [GW441756] (partner dose 0.4 µM),94.7,96.7,111,103,101,97.5,93,87.5,90.4
C[C@@H](N)c1ccc(C(=O)Nc2ccnc3[nH]ccc23)cc1 + COc1cc(N2CCC(N3CCN(C)CC3)CC2)ccc1Nc1ncc(Cl)c(Nc2ccccc2S(=O)(=O)C(C)C)n1 [NVP-TAE684] (partner dose 0.08 µM),98.4,95.8,98.4,94.7,106,102,102,92.1,89.3
C[C@@H](N)c1ccc(C(=O)Nc2ccnc3[nH]ccc23)cc1 + CO[C@@H]1[C@H](N(C)C(=O)c2ccccc2)C[C@H]2O[C@]1(C)n1c3ccccc3c3c4c(c5c6ccccc6n2c5c31)C(=O)NC4 [Midostaurin] (partner dose 0.08 µM),83.5,96.8,79.9,82,99.7,86.4,116,91.2,80.6
C[C@@H](N)c1ccc(C(=O)Nc2ccnc3[nH]ccc23)cc1 + COc1cc2ncnc(Nc3ccc(Oc4ccccc4)cc3)c2cc1OC [SrcI1] (partner dose 2 µM),85.6,138,101,112,102,101,153,132,65.6
CCCCCCCCCCCCCCCCCCOP(=O)([O-])OC1CC[N+](C)(C)CC1 [Perifosine] + N#Cc1c(O)c2c(-c3ccc(-c4ccccc4O)cc3)csc2[nH]c1=O [A769662] (partner dose 2 µM),98,94.5,101,83.6,100,94.4,96.3,112,86.9
CCCCCCCCCCCCCCCCCCOP(=O)([O-])OC1CC[N+](C)(C)CC1 [Perifosine] + Cc1ccc(NC(=O)c2cccc(N(C)C)c2)cc1NC(=O)c1ccc(O)cc1 [ZM336372] (partner dose 2 µM),114,112,119,87.9,83.7,97.7,90.2,140,89.1
Cn1sc(=O)n(Cc2ccccc2)c1=O + CN(NC(=O)CC(=O)NN(C)C(=S)c1ccccc1)C(=S)c1ccccc1 [STA4783] (partner dose 0.006 µM),81.7,46,73.7,79.2,96.7,75.2,74.8,103,90.9
CCCCCCCCCCCCCCCCCCOP(=O)([O-])OC1CC[N+](C)(C)CC1 [Perifosine] + COc1ccc(-c2ccc3c(N4CCOCC4)nc(N4C[C@@H](C)O[C@@H](C)C4)nc3n2)cc1CO [KU0063794] (partner dose 0.02 µM),97.5,70.1,114,104,89.1,101,100,73.6,95.4
Cn1sc(=O)n(Cc2ccccc2)c1=O + Oc1nc(-c2ccc(C(F)(F)F)cc2)nc2c1CSCC2 [XAV939] (partner dose 2 µM),76.1,68.9,97.4,92.6,103,95.4,88.4,154,79.7
C[C@@H](N)c1ccc(C(=O)Nc2ccnc3[nH]ccc23)cc1 + O=C(Nc1cccc(Cl)c1)Nc1ncc(CCNc2ncnc3ccsc23)s1 [SNS314] (partner dose 0.0008 µM),80.9,77,92.2,108,96.5,95.3,103,70.6,70.1
C[C@@H](N)c1ccc(C(=O)Nc2ccnc3[nH]ccc23)cc1 + Cc1cc(N2CCOCC2)cc2[nH]c(-c3c(NC[C@@H](O)c4cccc(Cl)c4)cc[nH]c3=O)nc12 [BMS536924] (partner dose 0.2 µM),79.2,111,96,101,96.6,90.2,106,56.7,76.5
CCCCCCCCCCCCCCCCCCOP(=O)([O-])OC1CC[N+](C)(C)CC1 [Perifosine] + O=S(=O)(c1ccccc1)N(CC(F)(F)F)c1ccc(C(O)(C(F)(F)F)C(F)(F)F)cc1 [T0901317] (partner dose 1.4 µM),94.6,119,86.2,78,94.5,84.2,88.7,97.7,75.5
Cn1sc(=O)n(Cc2ccccc2)c1=O + Cc1cc([N+](=O)[O-])ccc1NS(=O)(=O)c1cc(Cl)ccc1Cl [FH535] (partner dose 1 µM),86.1,121,59.2,87.9,79.8,82.8,96.4,91.8,96.3
Cn1sc(=O)n(Cc2ccccc2)c1=O + COc1ccc(-c2ccc3c(N4CCOCC4)nc(N4C[C@@H](C)O[C@@H](C)C4)nc3n2)cc1CO [KU0063794] (partner dose 0.02 µM),82.4,96.7,103,95,98.4,95.9,93.2,89.1,67.5
Cn1sc(=O)n(Cc2ccccc2)c1=O + O=S(=O)(c1ccccc1)N(CC(F)(F)F)c1ccc(C(O)(C(F)(F)F)C(F)(F)F)cc1 [T0901317] (partner dose 1.4 µM),92.9,111,97.7,93.2,92.7,93.4,118,110,96.7
Cn1sc(=O)n(Cc2ccccc2)c1=O + C[C@@H]1CCN(C(=O)CC#N)C[C@@H]1N(C)c1ncnc2[nH]ccc12 [CP690550] (partner dose 1 µM),89.3,121,113,107,102,99.3,95.1,78,112
C[C@@H](N)c1ccc(C(=O)Nc2ccnc3[nH]ccc23)cc1 + CC(C)(C)c1cnc(CSc2cnc(NC(=O)C3CCNCC3)s2)o1 [SNS-032] (partner dose 0.01 µM),82.1,89.7,103,90.2,103,95.9,85,88,88.7
Cn1sc(=O)n(Cc2ccccc2)c1=O + CO[C@@H]1[C@H](N(C)C(=O)c2ccccc2)C[C@H]2O[C@]1(C)n1c3ccccc3c3c4c(c5c6ccccc6n2c5c31)C(=O)NC4 [Midostaurin] (partner dose 0.08 µM),86.8,102,105,84.5,95.7,89.8,97.4,70.7,102
Cn1sc(=O)n(Cc2ccccc2)c1=O + N#Cc1c(O)c2c(-c3ccc(-c4ccccc4O)cc3)csc2[nH]c1=O [A769662] (partner dose 2 µM),89.6,187,123,102,107,99.4,106,98.5,86.2
CCCCCCCCCCCCCCCCCCOP(=O)([O-])OC1CC[N+](C)(C)CC1 [Perifosine] + OCCn1cc(-c2cnc3nnn(Cc4ccc5ncccc5c4)c3n2)cn1 [PF04217903] (partner dose 1 µM),43.4,98.2,76.6,88.3,93.9,96.2,75.9,109,80.9
CCCCCCCCCCCCCCCCCCOP(=O)([O-])OC1CC[N+](C)(C)CC1 [Perifosine] + COc1ccc2c(c1)CCC1C2CCC2(C)C(NCCCCCCN3C(=O)C=CC3=O)CCC12 [U73122] (partner dose 0.4 µM),89.8,129,85.2,106,100,104,101,74.7,83.6
C[C@@H](N)c1ccc(C(=O)Nc2ccnc3[nH]ccc23)cc1 + O=c1cc(-c2cccc3c2Sc2ccccc2S3)oc(N2CCOCC2)c1 [KU55933] (partner dose 1 µM),92.7,132,131,108,94.1,90.9,148,64,101
